Measured values from publication PMC6346018 (Scientific Reports, 2019).

What was measured:
[1] = target: T1, light-activated and phosphorylated rhodopsin in rod outer segment membranes (P-ROS*) (UniProt P02699 1-348, phosphorylated by endogenous GRK1: mixture of species with up to seven phosphate groups per molecule, sites not stated); assay: pull-down; cleared bacterial lysate with arrestin-mCherry mixed with ROS-P* membranes; 10 mM Hepes pH 7.0, 1 mM DTT, 1 mM MgCl2, 0.1 mM EDTA, NaCl from 100 mM to 3.949 M; 37 °C, 5 min incubation, light activated 6 min; membranes pelleted, washed, mCherry fluorescence of the pellet; IC50 of NaCl for complex formation; details: partners not purified
T1 construct: rhodopsin, endogenous in native rod outer segment (ROS) disc membranes (isolated membranes, not whole cells); also called ROS-P*; source: rod outer segment disc membranes isolated from native source; phosphorylated by endogenously available GRK1; illuminated
T1 sequence (P02699 whole entry): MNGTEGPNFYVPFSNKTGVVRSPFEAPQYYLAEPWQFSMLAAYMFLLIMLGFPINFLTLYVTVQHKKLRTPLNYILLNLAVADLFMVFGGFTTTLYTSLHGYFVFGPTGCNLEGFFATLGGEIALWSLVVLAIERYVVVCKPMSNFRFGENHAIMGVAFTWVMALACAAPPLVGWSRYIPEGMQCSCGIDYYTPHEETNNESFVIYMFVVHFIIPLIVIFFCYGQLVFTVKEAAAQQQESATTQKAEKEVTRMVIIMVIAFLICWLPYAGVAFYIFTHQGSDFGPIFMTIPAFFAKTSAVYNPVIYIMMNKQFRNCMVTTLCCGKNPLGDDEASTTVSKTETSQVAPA

[2] = target: T1, light-activated and phosphorylated …; assay: as above; details: partners not purified; remark: listed apart in the source
[3] = target: T1, light-activated and phosphorylated …; assay: pull-down; 1.5 µg purified arrestin-1-mCherry and 15 µg (rhod-)opsin in native ROS membranes, 50 µl, 100 mM Hepes pH 7.0, 100 mM NaCl, 1 mM DTT, 0.1 mM EDTA; P-ROS* and ROS* illuminated 2.5 min (495 nm long-pass), others kept dark; centrifuged at 4 °C, pellet washed, mCherry fluorescence; details: one partner purified

IC50 of NaCl for complex formation [1] [M] | IC50 of NaCl relative to WT [2] [%] | activity level relative to WT [3] [%] | Binder
1.32 ± 0.31 | 322 |  | arrestin-1-mCherry mutant F375A, bacterial lysate (natural protein, arrestin-1 (visual arrestin), bovine, […]; also called single mutant F375A; not shown: mCherry, C-terminal, kept) not shown
 |  | 102 | arrestin-1-mCherry-Strep-tag mutant F375A, HEK293-expressed and purified (natural protein, arrestin-1 (visual arrestin), bovine, […]; also called arrestin-1 F375A mutant; source: HEK293, transiently transfected (pcDNA3.1), one-step purified (Strep-Tactin); not shown: mCherry, C-terminal, kept) not shown
